Assay results from ChEMBL document CHEMBL1157539, “Thousands of chemical starting points for antimalarial lead identification” (Nature, 2010).
The full ranking holds about 13,000 compounds; the median of “IFI” is about 4, and the highest 2% start at about 17. The list shows a part of the results.

Experiment: GSK_TCMDC: Inhibition Frequency Index (IFI). The number of non-kinase HTS assays where a compound showed > 50 % inhibition, expressed as a percentage of the number of such assays in which the compound was tested (-0 is zero)
Type: functional

Row | SMILES | IFI
1 | N=C1NC(c2ccccc2)(c2ccccc2)C(=O)N1CC=Cc1ccccc1 | 10.7%
2 | O=C(/C=C/c1ccccc1)N1CCOC(CCN2CCC(c3ccccc3)CC2)(c2ccc(Cl)c(Cl)c2)C1 (stereo not drawn) | 7.59%
3 | CCCNC(=O)Nc1cc2cc(-c3cccc(CN4CCCCC4)c3)ccc2n2c(C)nnc12 | 13.2%
4 | CCCNCc1ccc(-c2ccc(CN(CCOC)C(=O)CCC(=O)c3ccc(OC)c(F)c3)cc2)nc1 | 0.7%
5 | COc1ccc(CNC2CCN(c3ccc(NC(=O)c4cccc(Cl)c4)cc3)CC2)cc1OC | 7.69%
6 | O=C(NCCN1CCCC1)c1cccc(-c2ccc(-c3nc4ccccc4[nH]3)s2)c1 | 2.7%
7 | Cc1onc(-c2ccccc2)c1-c1nc(NCCC(c2ccccc2)c2ccccc2)no1 | -0%
8 | c1ccc(Oc2ccc(Nc3nncc4ccccc34)cc2)cc1 | 2.16%
9 | Cc1cnc(C(=O)Nc2ccc(-c3cccc(-c4nc5ccccc5[nH]4)c3)cc2)cn1 | 6.14%
10 | Cc1cccc(Oc2cccc3[nH]nc(N)c23)c1 | 1.53%
11 | CN1CCCN(Cc2cccc(-c3cccc(NC(=O)c4ccc(C#N)cc4)c3)c2)CC1 | 0.98%
12 | N=c1n(Cc2ccccc2)c2ccccc2n1CC(O)c1ccc(Cl)c(Cl)c1 (stereo not drawn) | 7.86%
13 | Cc1ccc2c(N/N=C/c3ccccc3[N+](=O)[O-])cc(C)nc2c1 | 2.96%
14 | Cc1cc(N2CCCN(C)CC2)nc(Nc2ccc(Cl)cc2)n1 | 0%
15 | CS(=O)(=O)Nc1ccc2[nH]cc(C3CCN(CC(O)C4CCN(C(=O)/C=C/c5ccc(Cl)c(Cl)c5)CC4)CC3)c2c1 (stereo not drawn) | -0%
16 | Cc1nnsc1C(=O)Nc1cccc(-c2cccc(-c3nc4cccc(C)c4[nH]3)c2)c1 | 6.36%
17 | CCCNCc1ccc(-c2ccc(CN(CCOC)C(=O)c3ccc([N+](=O)[O-])c(C)c3)cc2)nc1 | -0%
18 | COc1ccc(-c2ccc(Nc3cccc(S(=O)(=O)CCN4CCC(CCN(C)C)CC4)c3)nc2)cn1 | 9.26%
19 | CCCc1cn2c3c(cc(C(=O)N[C@@H](Cc4ccccc4)[C@H](O)CNC4CCCCC4)cc13)N(CC)S(=O)(=O)CC2 | 3.97%
20 | CN1CCCC(CN2CCN(Cc3ccc(-c4ccc(-c5nc6cc(F)ccc6[nH]5)cc4)cc3)CC2)C1 (stereo not drawn) | 7.04%
21 | CC(=O)c1c(Cc2cccc(C(F)(F)F)c2)c[nH]c1C | 1.68%
22 | CCCCCCCCCCNCC(O)c1ccc(O)c(C(=O)OC)c1 (stereo not drawn) | 5.07%

Row | SMILES | IFI
23 | CCCCCCCN1CCC(CCNc2ccnc3ccc(OC)cc23)CC1 | 2.16%
24 | O=C(Nc1cccc(CN2CCCN(Cc3ccc(O)cc3)CC2)c1)c1cc(F)cc(F)c1 | 2.31%
25 | CCCNC(=O)C1Cc2c([nH]c3cc(Br)ccc23)C2(CCN(CCc3ccccc3)CC2)N1 (stereo not drawn) | 4.32%
26 | COC(=O)c1cccc(NC(=O)NC2CCN(c3ccnc(Nc4ccc(F)cc4)n3)C2)c1 (stereo not drawn) | 6.15%
27 | c1cncc(CN2CCCN(c3ccc4c(c3)CCN(Cc3ccc(-c5ncc[nH]5)cc3)CC4)CC2)c1 | 2.54%
28 | CCNc1cc(CCCC(=O)OCC)nc(Nc2ccc(C)cc2)n1 | 9.09%
29 | Cc1ccc(NC(=O)c2cc(Br)cc(N3CCC(N(C)C)CC3)c2)cc1F | 4%
30 | CO/C(=C/C=C/c1cc2cc(Cl)c(Cl)cc2[nH]1)C(=O)NC1CC(C)(C)N(C)C(C)(C)C1 | 12%
31 | COc1cc2c(cc1C(F)(F)F)N(C(=O)Nc1ccc(Br)cn1)CC2 | 0.75%
32 | CCNc1cc(C(=O)N[C@@H](Cc2ccccc2)[C@H](O)CN[C@H](C)C(C)(C)C)cc(N2CCCCS2(=O)=O)c1 | 0.76%
33 | CC(C)c1cc(Oc2c(I)cc(CCNC(=N)N)cc2I)ccc1O | 15.3%
34 | Cc1nc(-c2ccc(-c3ccc(NC(=O)c4coc5ccc(N6CC(C)N(C)C(C)C6)cc45)cc3)c(C)c2)no1 (stereo not drawn) | 4.08%
35 | COc1cc(NCC(CN)Cc2ccc3c(c2)OCO3)nc2ccccc12 (stereo not drawn) | 10.3%
36 | O=C(CSc1nc2ccccc2c(=O)n1CC1CCCO1)Nc1cc(C(F)(F)F)ccc1Cl (stereo not drawn) | 3.6%
37 | O=C(c1ccc(F)cc1)N1CCOC(CCN2CCC(c3ccccc3)CC2)(c2ccc(Cl)c(Cl)c2)C1 (stereo not drawn) | 5.52%
38 | O=C(NCCN1CCCCC1)c1ccc(Nc2nccc(Nc3ccc(Oc4ccccc4)cc3)n2)cc1 | 5.11%
39 | CCc1cccc2sc(N3CCN(C(=O)c4ccc([N+](=O)[O-])o4)CC3)nc12 | 8.33%
40 | CN(C(=O)/C=C/c1ccccc1F)C1CCN(CCCCCNC(=O)/C=C/c2ccc(Cl)c(Cl)c2)CC1 | 8.7%
41 | C=C(C)COc1ccc(-c2n[nH]c(C(F)(F)F)c2-c2ccccc2OC)c(O)c1 | 10.4%
42 | COc1ccc(CCn2c(=N)c(C(=O)NCc3cccnc3)cc3c(=O)n4cccc(C)c4nc32)cc1 | 1.74%
43 | O=C(NCCCN1CCC(NC(=O)c2ccc(-c3cccnc3)cc2)CC1)c1ccc(Cl)c(Cl)c1 | 1.43%
44 | O=C(Nc1ccc([N+](=O)[O-])cc1)Nc1nc2ccc(Cl)cc2s1 | 15.7%

Row | SMILES | IFI
45 | CCOc1cc(C(=O)NCCCN2CCN(c3cccc(Cl)c3)CC2)ccc1-c1nc2cc(Cl)c(F)cc2[nH]1 | 2.17%
46 | CCCN(C(=O)c1ccccc1C)c1nnc(-c2cccc(C)c2)s1 | 4.39%
47 | O=C(NCC1CCN(Cc2ccc3c(c2)OCCO3)C1)c1cc(-c2ccccc2F)cs1 (stereo not drawn) | 6.12%
48 | CCc1ccc(-n2c(=O)c3cccnc3n2CC(=O)NC2CCCC2)cc1 | 2.78%
49 | COc1nc2c(CCN3CC[C@@H](NCc4cc(C#N)c5c(c4)CCO5)[C@@H](O)C3)ccnc2cc1F | 4.85%
50 | COc1ccc(NC(=O)Nc2ccc(-c3ccccc3)cc2Cl)cc1N1CCN(C)CC1 | 9.92%
51 | N=c1n(Cc2ccc(Cl)cc2)c2ccccc2n1CC(O)c1ccc(Cl)c(Cl)c1 (stereo not drawn) | 12.5%
52 | C=CCOC1OC(COC(c2ccccc2)(c2ccccc2)c2ccccc2)C(OC(C)=O)C(OC(C)=O)C1NC(C)=O (stereo not drawn) | 0.76%
53 | CCn1cc(CN2CCCC(C(=O)Nc3ccc(-c4nc5ccccc5[nH]4)cc3)C2)cn1 (stereo not drawn) | -0%
54 | CC(CO)(CO)NCc1cc2ccc3ccsc3c2c2ccccc12 | 7.52%
55 | OC(CN1c2ccccc2Sc2ccccc21)CN(C1CCCCC1)C1CCCCC1 (stereo not drawn) | 11.6%
56 | COc1c(C2=CCN(CCCCNC(=O)c3ccc(-c4ccc(C#N)cc4)cc3)CC2)c(C)cc2c1C(C)(C)CCC2(C)C | 4.62%
57 | O=C(NC1CC1)C1CCN(Cc2cc3ccccc3n2Cc2ccc(Cl)cc2)CC1 | 7.02%
58 | Cc1cccc2nc(-c3ccc(-c4ccc(CN5CCN(CC6CCCN(C)C6)CC5)cc4)cc3)[nH]c12 (stereo not drawn) | 7.04%
59 | Cc1cccc2c(C(=O)NC3CCN(Cc4ccccc4)CC3)cc(-c3cccnc3)nc12 | 1.92%
60 | CCCC(C)NC[C@@H](O)[C@H](Cc1ccccc1)NC(=O)c1cc(C2CCCC2)cc(N2CCCCS2(=O)=O)c1 (stereo partly drawn) | 6.77%
61 | CCOc1cc(C)ccc1C1CCN(CCCCNC(=O)c2nc(-c3ccc(C(F)(F)F)cc3)[nH]c2C)CC1 | 1.44%
62 | Cc1cc(C(=O)N(Cc2ccc(-c3ccc(CNCCc4ccc(S(C)(=O)=O)cc4)cn3)cc2)C(C)CN(C)C)ccc1[N+](=O)[O-] (stereo not drawn) | 1.4%
63 | Cc1ccc(CNC(=O)[C@H](CCCN)Nc2nc(Nc3ccccc3)ncc2C)cc1 | 4.76%
64 | CC(C)NC(=O)c1cccc(-c2cccc(OCCN3CCSCC3c3ccccc3)c2)c1 (stereo not drawn) | 7.55%
65 | Nc1nc(-c2ccc3c(Nc4ccc(F)c(Cl)c4)ccnc3c2)cs1 | 4.32%
66 | COc1ccc2cc(C(=O)Nc3ccc4c(c3)CCN(C3CCC3)CC4)ccc2c1 | 3.76%

Row | SMILES | IFI
67 | COc1cc(NC2CCCC(NCc3cn(S(=O)(=O)c4ccccc4)c4ccccc34)C2)nc2ccccc12 (stereo not drawn) | 6.62%
68 | COc1ccc(Nc2nccc(N3CCC(NC(=O)Nc4cccc(OC)c4)C3)n2)cc1 (stereo not drawn) | 1.54%
69 | CCCc1ccc(S(=O)(=O)NC2CCN(C(=O)Nc3ccc(I)cc3)CC2)cc1 | 2.94%
70 | CCCC(C)Nc1nc(C)cc(N[C@@H](CC(C)C)C(=O)NCCc2ccccc2)n1 (stereo partly drawn) | 6.82%
71 | CC(=O)Nc1ccc(C(=O)Nc2cccc(-c3ccc(-c4nc5cc(F)ccc5[nH]4)cc3)c2)cn1 | 8.11%
72 | Clc1cccc(CNc2nc(NCCc3c[nH]cn3)nc(NC3CCCCC3)n2)c1 | 0%
73 | Cc1cnc(C(=O)Nc2ccc3c(c2)CCCN(Cc2c[nH]c4cnccc24)C3)cn1 | 0%
74 | CO/C(=C\C=C\c1cc2cc(Cl)c(Cl)cc2[nH]1)C(=O)NCCCN1CCN(Cc2ccccc2)CC1 | 15.8%
75 | Nc1nc(N)c2c(Oc3cccnc3)cccc2n1 | 2.96%
76 | Cc1cccc2nc(-c3cccc(-c4ccc(NC(=O)Cc5ccccn5)cc4)c3)[nH]c12 | 3.48%
77 | C=C(C)CSc1nc2c(c(=O)n1CCc1ccccc1)C1(CCCC1)Cc1ccccc1-2 | -0%
78 | NCCNc1ccc([N+](=O)[O-])cc1C(=O)Nc1cccc(Cl)c1 | 1.45%
79 | Cc1nc(NCCCn2ccnc2)cc(-c2cncc(-c3ccc(OC(F)(F)F)cc3)c2)n1 | 1.03%
80 | Fc1ccc2[nH]ccc(=NN=Cc3ccccc3Cl)c2c1 | 0.72%
81 | COc1ccc2nccc([C@@H](O)CN3CCC(NC(=O)c4ccc(Cl)c([N+](=O)[O-])c4)CC3)c2c1 | 4.38%
82 | O=C(/C=C/c1ccc(Cl)c(Cl)c1)NCCCCCCN1CCN(C(=O)Nc2cccc(Cl)c2)CC1 | 6.4%
83 | CC(C)(CNC(=O)C1CCN(Cc2ccoc2)CC1)c1nc(-c2ccc(Cl)c(O)c2)c(-c2ccncc2)[nH]1 | -0%
84 | CCc1ccc(C2CCN(CCCCNC(=O)c3ccc(NC(=O)c4ccc(Cl)cc4)cc3)CC2)c(OC(C)=O)c1 | 6.36%
85 | COc1ccccc1C(=O)N1CCN(Cc2cccs2)CC1 | 0%
86 | OC1CCCN(Cc2ccc(-c3cccc(-c4nc5cc(F)ccc5[nH]4)c3)cc2)C1 (stereo not drawn) | -0%
87 | O=C(Nc1ccc(Cl)cc1)Nc1cccc(-c2cccc(-c3nc4ccccc4[nH]3)c2)c1 | 4.04%
88 | CCCCNC(=O)[C@H](CC1CCCCC1)NC(=O)c1ccc(O)c(-c2ccc(Cl)c(Cl)c2)c1 | 2.96%
